Data: PubChem BioAssay (NCI)
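The compound was tested at five concentrations on cells cultured in 96-well plates, with a 48-hour exposure period. GI50 marks 50% less growth. TGI: concentration producing complete growth inhibition.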

Each compound was assayed on NCI-H322M lung (assay: NCI-60 cell line screen, 48 h).
In the case of `CC1(C)C(=O)C(C)(C)C12SSC1(S2)C(C)(C)C(=O)C1(C)C`, the TGI is reported as over 100 µM. With `CC1(C)CC(=O)C2=C(C1)c1c(ccc3ccccc13)NC2c1cn(Cc2ccc(Cl)cc2)c2ccccc12` (stereo unspecified) the TGI was over 100 µM. With `NC(=O)N1N=C2c3ccccc3CC[C@@H]2C1c1ccccc1` (stereo partly specified) the TGI was over 100 µM. `N#CCCN(CCC#N)c1ccc(C(N=Nc2ccccc2)=Nc2ccccc2)cc1` was tested, and the TGI was over 100 µM. In the case of `NCCCNc1nc2ccccc2c2c(=O)c3cc(C(F)(F)F)ccc3sc12`, the GI50 is reported as 1.61 µM and the TGI is reported as 2.96 µM. In the case of `CC(=O)C1CC=C(C)CC1` (stereo unspecified), the TGI is reported as over 100 µM. Work on `C1CCN(CCC2CCCCN2)CC1` (stereo unspecified) yielded a TGI of over 100 µM. In the case of `Cc1cc2cc3cc(C)c(N(C)C)cc3nc2cc1N(C)C`, the GI50 is reported as 7.01 µM and the TGI is reported as over 100 µM. For `O=C1C(/C=C/c2ccc(Cl)cc2)=NNC2N1N=C1NC(=O)C3(NN12)c1ccccc1-c1ccccc13` (stereo unspecified), the TGI was over 100 µM. Work on `COC(=O)C1=C(C(=O)OC)C2(OC(C)=O)c3ccccc3-c3ccccc3C12` (stereo unspecified) yielded a TGI of 38.3 µM. Work on `O=c1[nH]c(Nc2cccc(C(F)(F)F)c2)nc2nc[nH]c12` yielded a TGI of over 100 µM. In the case of `CC(C)C1OC(=O)C=C1Sc1ccccc1` (stereo unspecified), the TGI is reported as over 100 µM. `O=C/C(=C(/Br)I)c1ccccc1` gave a TGI of 28.8 µM. `CCOC(=O)C(=O)Nc1c(F)cc(F)cc1Br` was tested, and the TGI was over 100 µM. With `O=C1/C(=C\c2cccc(Oc3ccccc3)c2)S(=O)(=O)C(c2ccccc2)N1c1ccc(Cl)cc1` (stereo unspecified) the TGI was over 100 µM. `C[C@]12CC[C@@H]3c4cc(OCC(F)(F)F)c(O)cc4C(=O)C[C@H]3[C@@H]1CC[C@@H]2O` showed a TGI of over 100 µM. `CCOC(=O)c1c(C)c2c(n1C)CCc1cn[nH]c1-2` showed a TGI of over 100 µM. `COc1cc(NCCCCN=C(N)NC(N)=NC(C)C)c2ncccc2c1` was tested, and the GI50 was 12 µM and the TGI was 47.7 µM. With `COc1ccc(N=C(C)c2ccncc2)cc1` the TGI was over 100 µM. `COc1ccc(N2C(=O)C3ON(C(C(N)=O)c4ccccc4)C(c4ccc(-c5ccccc5)cc4)C3C2=O)cc1` (stereo unspecified) was tested, and the TGI was over 50 µM. Compound `Cc1ccc(NC(=O)NC(=O)c2ccc([N+](=O)[O-])cc2[N+](=O)[O-])cc1Oc1ncc(Cl)cn1` has a TGI of 23.8 µM. In the case of `CCCCCCCC/C=C/CCCCCCCC1=NCC[N+]1(CCO)CCO`, the GI50 is reported as 9.05 µM and the TGI is reported as 22.9 µM. In the case of `O=C1OCC(c2cccs2)=C1Cl`, the GI50 is reported as 17 µM and the TGI is reported as 51.3 µM. `CCOC(=O)N1CCc2cc(OC)c(OC)c3c2C1CC3=O` (stereo unspecified) was tested, and the TGI was over 100 µM. Work on `CC1(c2nc3cc(Cl)c(Cl)cc3[nH]2)CCC(CO)C(C)(C)O1` (stereo unspecified) yielded a TGI of over 100 µM. With `CCn1c2c(n(CC)c1=S)-c1c(n(CC)c(=S)n1CC)SSSS2` the TGI was over 95.7 µM. `COc1ccc2nc3cccc([N+](=O)[O-])c3c(NCCO)c2c1` was tested, and the TGI was 0.174 µM. Compound `CCNC1(c2cccc(C)c2)OC(C)(C)c2cccc3cccc1c23` (stereo unspecified) has a TGI of 41.4 µM. `O=S(O)CCCCCSSCCCCSSCCCCCS(=O)O` gave a TGI of over 100 µM. `CSc1cnn(CCC#N)c(=O)n1` was tested, and the TGI was over 100 µM. In the case of `CC1=C2C(=O)[C@H]3[C@@H](CC=C4C[C@@H](O)CC[C@@]43C)[C@@H]2CC[C@]12O[C@@H]1C[C@H](C)CN[C@H]1[C@H]2C`, the TGI is reported as over 62.5 µM. Work on `CCNCC(=O)O[C@]1(CC)C(=O)OCc2c1cc1n(c2=O)Cc2cc3ccccc3nc2-1` yielded a TGI of 11 µM. In the case of `COc1cccc(C2C(C#N)=C(N)Oc3cc(N)ccc32)c1` (stereo unspecified), the GI50 is reported as 1.94 µM and the TGI is reported as over 100 µM. With `COc1ccc(-c2csc(=Nc3ccccc3)n2CC(O)c2ccc([N+](=O)[O-])cc2)cc1` (stereo unspecified) the TGI was over 100 µM. With `CCCn1c(SCC)c2ccccc2c1-c1nc(F)nc(F)n1` the TGI was over 100 µM. `CCCCC(C)C1CCC2(C)C=CC(=O)C(C)=C2C1O` (stereo unspecified) was tested, and the TGI was over 100 µM. Work on `CC/C=C1\N=C(c2ccc(Cl)cc2)OC1=O` yielded a TGI of over 100 µM. In the case of `CC(C)C1(C)N=C(C(F)(F)F)c2cc(C(=O)C(F)(F)F)c3ccccc3c2N1` (stereo unspecified), the TGI is reported as 18.7 µM. `CCCc1c(OC)c(=O)c2c(OC)cc(OC)c3c4c(OC)cc(OC)c5c(=O)c(OC)c(CCC)c(c1c23)c54` gave a TGI of 28.3 µM. With `CN1CN(c2ccccc2)C2(CCN(CCCSc3ccccc3NC(=O)/C=C/c3ccccc3)CC2)C1=O` the TGI was over 100 µM. `N#Cc1c(-c2ccc([N+](=O)[O-])cc2)cc(-c2ccc(Nc3ccnc4cc(C(F)(F)F)ccc34)cc2)nc1N` was tested, and the TGI was over 66.7 µM. With `CC(C)CCOc1ccc(-c2n[nH]c(C(F)(F)F)c2-c2cncc(C#N)c2)c(O)c1` the GI50 was 2.7 µM and the TGI was 13.2 µM. For `OCCCN=NNc1ccc(-c2nc3ccccc3[nH]2)cc1`, the GI50 was 15.5 µM and the TGI was 45.9 µM. With `CCSCC(N)C(=O)O` (stereo unspecified) the TGI was over 100 µM. `CCc1n[nH]c(=O)n1/N=C/c1ccccc1Cl` was tested, and the TGI was over 100 µM. `CCN(CC)CCCNc1cccc2c(SCc3ccccc3)ccnc12` gave a GI50 of 2 µM and a TGI of 3.65 µM. Work on `O=P(Oc1ccccc1)(Oc1ccccc1)Oc1c[nH]c2ccccc12` yielded a TGI of 35.9 µM. `O=[N+]([O-])c1ccc(C2=NOC(c3ccccc3F)N2C23CC4CC(CC(C4)C2)C3)cc1` (stereo unspecified) showed a TGI of over 100 µM. Compound `N/N=C1\C(=O)N(C2CCCCC2)C(=O)C1C(=O)NC1CCCCC1` (stereo unspecified) has a TGI of over 100 µM. With `O=c1oc2ccccc2c(O)c1C(c1ccco1)c1c(O)c2ccccc2oc1=O` the TGI was over 100 µM. Compound `CSc1nc(-c2cc3c(c(SC)n2)CCCCC3)cc2c1CCCCC2` has a TGI of over 100 µM. In the case of `COC(=O)C(O)P(=O)(OC)OC` (stereo unspecified), the TGI is reported as over 100 µM.
